# According to the supplement of paper PMC10126150:
# Values marked as one replicate rest on one cluster of the flow cell; about a third of the high ones do not repeat.
# Test system: ATP
# Experiment: switch fluorescence ratio, 500 uM ATP over buffer (Cy3 cluster intensity, sum of 5 cycles each) (fold (ratio)); higher = stronger signal-on switching upon ATP binding; sequences stand for … in TCGTCGGCAGCGTCAGATGTGTATAAGAGACAGTTTTTTTTTTTTTTTTTTTTTTTTT…TC
# Conditions: aptamer strand: ATP DNA aptamer (quencher-CACCTGGGGGAGTATTGCGGAGGAAGG + anchor), 100 nM annealed; ATP concentration: 500 uM; one replicate
# Procedure, shortened: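 The fluorescence ratio divides summed target-cycle Cy3 intensity by summed buffer-cycle Cy3 intensity for each cluster and is averaged per switch-domain sequence. Cy3-labelled switching-strand clusters on a modified Illumina MiSeq flow-cell were annealed to 100 nM quencher-labelled ATP aptamer, then imaged in selection buffer and again after 15 min with 500 uM ATP at 22 °C. Five such cycles were run, with NaOH stripping and re-annealing between them, and clusters outside 100-1000 RFU were excluded.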
# 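Also: ATP exposure 15 min at 22 °C before imaging.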
row,Sequence,switch fluorescence ratio
1,TTATTGGAA,1.01
2,CTCTATGAAT,0.993
3,TCCTATATGA,0.978
4,TGGGCGACGC,1.09
5,GAGGATTGAG,1.03
6,GGAAAGGCA,1.03
7,TATTGGGCTG,0.939
8,GTCCTTCAAT,1.01
9,ACCGAGGTTA,0.998
10,CGATGAGACC,1.01
11,GAATCTAGCC,0.961
12,GTTATGGAAT,1.04
13,CCGGCGGACG,1.02
14,GACTGGGGAA,1.02
15,TCAGTGTATC,0.985
16,AACGACCGAG,1.1
17,CTATGAACCT,1.47
18,AACCTTATAT,1
19,TTATGCGG,1.02
20,TAAGAAGTGC,0.946
21,AGTGCTAAGC,0.963
22,GAATTCCACC,1.07
23,CGAGAAGCCC,0.994
24,AGATCTCAGC,1.02
25,TCAAAAATAC,2.2
26,AGGTAAAATG,0.955

row,Sequence,switch fluorescence ratio
1,CCTGGCAGGG,1.01
2,TTCGTCTAAA,1.06
3,CTATAAAGTA,0.991
4,ACGCTATCGG,1.11
5,AGGATGTGGC,1.02
6,TAAGCCTGGG,0.933
7,GCTCGCATCG,1.11
8,CGCTCTAGCG,0.958
9,GTTGTGGTAA,1
10,TGCGGTACAC,1.01
11,GCGAGGACCC,1.04
12,CCTCATATGG,1.14
13,TCTCTAGAGC,0.999
14,AACGACACTT,1.65
15,GATTGCTGCT,1.01
16,AGCTGGCTG,1.05
17,GCTTGGATTC,0.995
18,ACAGATCTGC,0.955
19,ACGCTATGTC,1.14
20,TTTAGCCACA,0.971
21,TAGAGGCGCG,0.985
22,ATCGGAACAT,1
23,TTGAAAAAGA,1
24,GCACTTCAC,1.28
25,CTTTGTTCAT,0.981
26,CCAGTATTGG,1.05

row,Sequence,switch fluorescence ratio
1,GCAGTCACCC,1.13
2,GGGTCCATAT,1.04
3,GAATACGCTA,1.56
4,CGGAGAAAGA,0.981
5,CGAGGAGTTG,0.984
6,GGCGGCGCTT,0.951
7,AAATGGGTGT,1.05
8,GGTACTGCC,1.09
9,TTCGGTCATC,0.936
10,TCAGTCAAAG,0.989
11,CTGATCTGAA,0.976
12,AGGATCAGAT,0.95
13,ACCTTGGTG,1.19
14,GACCGATACA,1.17
15,CTACGACGTC,1.06
16,TAATGGCATT,1.01
17,GGAGAGCAGA,1
18,CCGGGGAGCT,1.13
19,AACGTACAGT,1.52
20,CCCCATCTGG,1.09
21,ACATTGTAGG,1.03
22,GAACGGTCTC,0.996
23,TCTAATTACT,1.02
24,GACTAACTAG,0.988
25,CCATCTCGGC,1.02
26,CTAAGCTAGA,1.03

row,Sequence,switch fluorescence ratio
1,CTTGATAATT,0.994
2,GGTGTCAGCG,0.993
3,TGCGCTCAT,1.02
4,CAAGTGATA,1.01
5,TGAAAAGAAA,0.937
6,TGGTAGTGTG,0.983
7,AGGGTTAGG,0.974
8,TACCCATGAA,1.02
9,GCTAGCACAT,1
10,TAGGTTAGCC,1.01
11,AGTTTTTGCC,0.968
12,CTCAGTTT,0.995
13,CCTCGTCTAT,3.24
14,GATGTACGG,1.07
15,TATTCCAGAT,1.01
16,ATAATTGACT,1.05
17,TGTCGTAAGC,1
18,TACTTTGTTC,1.05
19,TATGTAATAT,0.977
20,GAGCCGAGGA,1.25
21,AAGAATAACG,1
22,TGGCTGATGT,0.979
23,GGCCTATCCG,0.998
24,TAAAGATCCT,1.07
25,TCCACCCTTT,1.02
26,ATAGAGCGTC,1.04

row,Sequence,switch fluorescence ratio
1,TTTAGGGATC,1.02
2,GTTTCATGGT,0.948
3,GGGGCGCAGT,0.93
4,GACATATCAG,0.986
5,AATAGAAGGG,1.02
6,CTCGTTAATT,1.03
7,CTCAAAAGAA,1.07
8,ATCGATGGCA,1.04
9,GGAATTCGTA,0.923
10,GGTGACAGGG,0.993
11,CAGTGTGAG,0.992
12,GGTATAAAT,1.01
13,AAAAATGCTA,1.01
14,TCGCCGAGCT,1.06
15,AACTGATTCT,1.03
16,GGTGCAACGA,1.05
17,ATCTGACTGC,1.03
18,AGTTTGTGTA,1.02
19,GAAGACGGGT,1.02
20,TATAGGGTAG,1
21,ACTGTGGTAC,1.05
22,TCTGTCTTT,1.01
23,AGGAATTCAT,0.94
24,AATATGATCT,1.01
25,CCTAGTCAAA,1.15
26,TGAGTATTGA,1.02

row,Sequence,switch fluorescence ratio
1,GTGTTAATTT,1.01
2,CGCTGAGGGA,1.08
3,CCAGTAAAAG,0.987
4,CCGATAATG,1.17
5,ACTAATATAG,0.975
6,TTTGTCAA,1.08
7,TAGTGTATGG,1
8,CGTGCTGCGG,0.955
9,GCTAGGTAGG,0.985
10,ATTACGCTAG,1.06
11,GGTGGCGGGC,1
12,CCGGCATCAA,2.38
13,CTTAGGCACG,1.08
14,ACATGCATGA,0.996
15,ATAACAGCAC,1.24
16,CCTAGTAC,1.12
17,TAATTTTGAA,1.04
18,TACGAGATCT,0.959
19,CGACCTGTCT,1.03
20,CACATAGGTA,1.01
21,ACATGTCGCA,1.07
22,CAAGCATTCC,1.41
23,GATTAGTGCC,0.966
24,TTTTTCGAAA,1.04
